Results taken from the supplement of paper PMC4166925.
± gives the standard deviation of the averaged measurements. Over roughly 33,000 sequences, “E-score (dimensionless, -0.5 to 0.5)” has its median near -0.046; the highest 2% begin near 0.36. The list shows a part of the results.

Each sequence was assayed on T1, SpTbr T-box DNA-binding domain (GST fusion) (assay: PBM E-score of 8-mer (E-score (dimensionless, -0.5 to 0.5)); Tbr is Tbrain of the sea star Patiria miniata (Pm) or the sea urchin Strongylocentrotus purpuratus (Sp); higher = stronger binding preference; most listed sequences are background and not binding sites). Conditions: the construct has about 5 more residues each side.
T1 sequence: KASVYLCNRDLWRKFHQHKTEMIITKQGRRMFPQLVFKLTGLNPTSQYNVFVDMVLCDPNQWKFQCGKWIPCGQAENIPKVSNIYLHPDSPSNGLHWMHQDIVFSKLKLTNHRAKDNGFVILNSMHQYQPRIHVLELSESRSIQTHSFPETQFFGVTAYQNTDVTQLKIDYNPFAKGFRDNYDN
Summary of the method: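 Using the Universal PBM Analysis Suite, every ungapped 8-mer received an enrichment E-score averaged over duplicate arrays. Probe intensities came from double-stranded Universal Agilent oligonucleotide arrays incubated with 200 nM GST-fused Tbr T-box DNA-binding domain in PBS (pH 7.5). That protein was expressed in BL21 E. coli at 20 °C and purified by glutathione affinity chromatography.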

| Sequence | PBM E-score of 8-mer |
| --- | --- |
| AAGATTGC | -0.117 ± 0.02 |
| CTGCGTGA | 0.172 ± 0.033 |
| CGGTATTC | -0.193 ± 0.0094 |
| AAAGTTAT | 0.0124 ± 0.035 |
| CCAGATAG | -0.0992 ± 0.038 |
| AACTTGAG | 0.0512 ± 0.074 |
| ATGTGCTA | 0.328 ± 0.024 |
| GTCCCACA | 0.186 ± 0.043 |
| AGTAACTC | -0.0161 ± 0.012 |
| CATCCACA | 0.217 ± 0.03 |
| CGACCATC | 0.0183 ± 0.023 |
| GTAGTACA | -0.227 ± 0.025 |
| ATCACGAT | 0.0135 ± 0.013 |
| ACGCTAAG | 0.0479 ± 0.022 |
| GGACAGGA | -0.197 ± 0.039 |
| ATCGAAGG | -0.136 ± 0.032 |
| GGCAGATA | -0.156 ± 0.043 |
| CCCACCGA | 0.0487 ± 0.022 |
| CTATCTGA | 0.171 ± 0.068 |
| GCCGTCGC | 0.144 ± 0.022 |
| TAATCTGA | -0.157 ± 0.031 |
| ACGCTTTA | 0.0822 ± 0.041 |

| Sequence | PBM E-score of 8-mer |
| --- | --- |
| CGATTTCC | -0.0331 ± 0.02 |
| CAGGTCAC | 0.171 ± 0.08 |
| ACGCAGAG | -0.0355 ± 0.11 |
| GGTTAAGA | -0.142 ± 0.0063 |
| CAGGCGAC | 0.166 ± 0.05 |
| AGTGTGGG | 0.399 ± 0.018 |
| GGCGATTA | -0.289 ± 0.013 |
| AGCAAAGG | -0.0921 ± 0.024 |
| AATGCTAA | -0.0592 ± 0.014 |
| GAAACTCC | -0.0865 ± 0.014 |
| CTTTTATC | -0.153 ± 0.14 |
| ATTTCGAA | -0.0836 ± 0.0012 |
| CTTGTCCC | -0.202 ± 0.029 |
| GGTGAAAC | -0.0179 ± 0.017 |
| TCAGATCA | -0.106 ± 0.022 |
| GTACGAGA | -0.203 ± 0.0077 |
| ACATGACC | -0.125 ± 0.059 |
| AGTAAGAC | -0.0827 ± 0.043 |
| CCGAAGAA | -0.2529 ± 0.00038 |
| ACGAACCC | -0.123 ± 0.023 |
| TATACTCA | -0.0865 ± 0.097 |
| ATAATTTC | -0.158 ± 0.034 |

| Sequence | PBM E-score of 8-mer |
| --- | --- |
| GCTCCTCA | -0.076 ± 0.0082 |
| AGTCAGTA | 0.00111 ± 0.045 |
| GCCAAACC | 0.0635 ± 0.08 |
| ATCCTATC | -0.124 ± 0.0047 |
| GTGAGACA | 0.292 ± 0.014 |
| ATAGGAAA | -0.233 ± 0.02 |
| AGTCCTTC | -0.127 ± 0.017 |
| CGATGCCG | -0.0132 ± 0.097 |
| CCCATCCA | -0.288 ± 0.062 |
| CAAAGCAA | -0.0076 ± 0.051 |
| CGAGCGGC | -0.0649 ± 0.08 |
| GCCGGCCA | 0.109 ± 0.0074 |
| ACTCAACC | -0.122 ± 0.055 |
| AGTCAGTC | -0.1 ± 0.012 |
| GAGCTAAC | 0.0914 ± 0.0041 |
| AATTCCGG | -0.121 ± 0.019 |
| ACCCCAAT | -0.1311 ± 0.00098 |
| CTCGCGTC | 0.134 ± 0.013 |
| CAATATAC | -0.0785 ± 0.083 |
| AGTTGACA | 0.4138 ± 0.001 |
| CCGGCGTC | 0.067 ± 0.035 |
| ACCGCATA | -0.13 ± 0.074 |

| Sequence | PBM E-score of 8-mer |
| --- | --- |
| ACACCGAT | 0.164 ± 0.0045 |
| CCTACATC | -0.228 ± 0.0069 |
| GCTCATCA | -0.109 ± 0.034 |
| ACAGACAC | 0.226 ± 0.0037 |
| CGTGCTTA | -0.104 ± 0.08 |
| ACTATTCT | -0.0613 ± 0.023 |
| GCCATCCC | -0.256 ± 0.014 |
| CCAAGGAC | -0.0655 ± 0.051 |
| CAAGCTGC | -0.0174 ± 0.056 |
| CAATAACA | 0.0759 ± 0.045 |
| AGTGCTAC | 0.245 ± 0.027 |
| AGAATTGC | 0.119 ± 0.07 |
| TGAGCAAA | 0.0407 ± 0.064 |
| AGAACGCA | -0.111 ± 0.06 |
| TCGATCAA | 0.035 ± 0.0039 |
| TCTGTCAA | 0.109 ± 0.046 |
| ATGTCCGC | -0.21 ± 0.037 |
| CTGTCTGA | 0.0118 ± 0.0004 |
| TTAGATAA | -0.211 ± 0.0079 |
| CGTGCATA | -0.187 ± 0.097 |
| GACATCGC | 0.0769 ± 0.043 |
| ATAAGGTG | 0.336 ± 0.015 |

| Sequence | PBM E-score of 8-mer |
| --- | --- |
| ATGGTCCA | -0.188 ± 0.044 |
| TCGGACAA | 0.033 ± 0.06 |
| GAATTATC | -0.114 ± 0.015 |
| CACAAAAC | 0.182 ± 0.058 |
| CCCCATCC | -0.201 ± 0.014 |
| CTCGTATC | -0.0329 ± 0.013 |
| CAACAGTC | -0.0439 ± 0.081 |
| CGGTTTCC | 0.0475 ± 0.036 |
| AATCACGA | 0.0962 ± 0.037 |
| CCCTAGGA | -0.0695 ± 0.011 |
| AGGTACAT | -0.303 ± 0.029 |
| ATCTTGTG | 0.0445 ± 0.042 |
| AAGGAAGT | 0.0406 ± 0.022 |
| CATAACCG | -0.0598 ± 0.014 |
| CCCCGGCC | -0.0578 ± 0.024 |
| ATCCTCAG | -0.0926 ± 0.023 |
| CGCCTCGA | 0.139 ± 0.028 |
| AACAAAGC | 0.00155 ± 0.04 |
| ACGCAAAA | 0.17 ± 0.029 |
| CCCCTACA | -0.0318 ± 0.01 |
| AGTTTCAT | -0.233 ± 0.01 |
